# “And” between values parts separate entries of the source, which are not always exact repeats. Equal entries are not always repeated. The list shows a part of the results. Many values rest on one well or one pass, so single values are uncertain.
# Tested on: SARS-CoV-2 nsp3 SARS-unique domain core (SUD-core, nsp3 residues 413-676)
# Assay: apparent dissociation constant Kd (single-concentration BLI fit); higher = weaker binding
# Conditions: 100 µM; 25 °C
row,Compound,apparent dissociation constant Kd
1,O=C(NCCO)c1cccc(-c2cc(Nc3ccc(OC(F)(F)F)cc3)ncn2)c1,3610 µM
2,Cn1nccc1Nc1nccc(-c2ccn([C@H](CO)c3ccc(Cl)c(F)c3)c(=O)c2)n1,2930 µM
3,C=CC(=O)Nc1cc(Nc2nccc(-c3c[nH]c4ccccc34)n2)c(OC)cc1N(C)CCN(C)C,2050 µM
4,CC#CC(=O)N1CC[C@@H](n2c(=O)n(-c3ccc(Oc4ccccc4)cc3)c3c(N)ncnc32)C1,1520 µM
5,C[C@@H]1CN(CC(=O)Nc2ccc3c(c2)Cc2cccc(-c4cc(=O)cc(N5CCOCC5)o4)c2S3)C[C@H](C)O1,29600 µM
6,Cc1nc(Nc2ncc(C(=O)Nc3c(C)cccc3Cl)s2)cc(N2CCN(CCO)CC2)n1,1800 µM and 1440 µM
7,Cn1cnc2c(ncn2[C@@H]2O[C@H](CO)[C@@H](O)[C@H]2O)c1=O,36400 µM
8,CCC(=O)N1CCN(c2ccc(-n3c(=O)ccc4cnc5ccc(-c6cnc7ccccc7c6)cc5c43)cc2C(F)(F)F)CC1,23 µM
9,Cc1ccc2c(Nc3ccc(Cl)cc3)nccc2c1Nc1ncccc1-c1ncnc2nc[nH]c12,295 µM
10,C[C@@]1(F)[C@H](O)[C@@H](CO)O[C@H]1n1ccc(N)nc1=O,50.2 µM
11,CC(C)Oc1cc(Nc2nc(N[C@@H](C)c3ccc(F)cn3)ncc2Cl)[nH]n1,101 µM
12,C[C@@H](Oc1cc(-c2cnn(C3CCNCC3)c2)cnc1N)c1c(Cl)ccc(F)c1Cl,2130 µM
13,CNC(=O)c1nn(C)c2c1C(C)(C)Cc1cnc(Nc3ccc(N4CCN(C)CC4)cc3)nc1-2,1910 µM
14,Cc1ncc(NC(=O)NC2c3ccccc3-c3ccccc32)c(-c2ccccc2)n1,15400 µM
15,Nc1cccc(-c2cc3c(Oc4cccc(O)c4)ncnc3[nH]2)c1,1570 µM
16,CN1CCN(CCOc2cc(OC3CCOCC3)c3c(Nc4c(Cl)ccc5c4OCO5)ncnc3c2)CC1,464 µM
17,COc1c(C)c(C(=O)c2ccc(N)c(C(=O)O)c2)n2ccccc12,1350 µM
18,C[C@H](Nc1ncnc2nc[nH]c12)c1nc2ccc(F)cc2c(=O)n1-c1ccccc1,1650 µM
19,O=C(NOCC(O)CO)c1cc(Br)c(F)c(F)c1Nc1ccc(I)cc1F (configuration not stated),1620 µM
20,CC[C@@]1(c2ccccc2)C2=C(CC(C)(C)CC2=O)Nc2[nH]ncc21,1490 µM
21,Cc1nn(CC(F)(F)F)cc1Nc1ncc(Br)c(NCc2ccc(S(N)(=O)=O)cc2)n1,799 µM
22,NCc1ccc(Nc2ncc(F)c(Nc3ccccc3)n2)cc1,43.7 µM

# Reference: the supplement of paper PMC10326071
